# Measurements: ChEMBL document CHEMBL4888484, “Replenishing the malaria drug discovery pipeline: Screening and hit evaluation of the MMV Hit Generation Library 1 (HGL1) against asexual blood stage Plasmodium falciparum ,using a nano luciferase reporter read-out” (2022)
# Out of some 150,000 compounds screened, about 540 (0.36%) showed an effect of 50% or more. Some of the results follow.
# System: Plasmodium falciparum
# Test: Primary screen in NF54 nanoGlo assay, in single point, at 2uM, 72h; a lower Z score goes with more inhibition
# Type: functional, Erythrocyte
# Conditions: timepoint 72 hour
SMILES,% Inhibition [%],Z score
CCS(=O)(=O)CCNC1CC2CC1C1CCCC21 (stereo not drawn),3,-0.35
Cc1ccc(S(=O)(=O)N2CCC(=C3CCC3)CC2)cc1C,-11,1.65
Cc1[nH]c(=O)[nH]c(=O)c1-c1ccc(C(=O)N2CCCCCCC2)cc1,-4,0.94
O=C1[C@@H]2C[C@@H](CN2C(=O)c2cncnc2)Oc2ccccc2N1Cc1cccnc1,34,-0.72
O=C(Nc1cccc2c1CCCC2)c1cnc(-n2cccn2)cn1,-10,2.09
CC[C@@H](CO)NC(=O)c1ccc(OC)c(OC)c1,29,-3.7
CC(=O)c1cc(-c2ncnn2C2CCCCC2)[nH]n1,1,-0.25
C[C@H](NS(=O)(=O)c1ccccc1)c1cncs1,-7,1.37
Nc1ncccc1CNC(=O)COCC(F)(F)C(F)F,2,-0.22
COc1cccc(CC(=O)N2CCCCCCNC(=O)[C@H]3C[C@H](c4nc(C(C)C)no4)C[C@H]32)c1,-13,1.58
C/C=C(\C)CN1CCN(C(=O)OCC)CC1,-9,1.27
Cc1ccc(NC(=O)N2CCCN(c3nc4cc(Cl)ccc4n4cccc34)CC2)c(Cl)c1,0,0
Cc1cccc(NC(=O)N(CCN(C)C)C2CCOCC2)c1C,1,-0.15
COc1cccc(C2c3[nH]c4ccccc4c3C[C@H]3C(=O)N(c4ccccc4C(=O)N4CCCC4C(=O)O)C(=O)N23)c1 (stereo partly drawn),-4,0.51
CS(=O)(=O)N(CCCC(=O)Nc1ccc2c(c1)OCCO2)c1ccccc1F,-4,0.66
Cc1oc(-c2cccc(F)c2F)nc1CN1CC[C@H](O)[C@@H](O)C1,-7,1.31
c1ccc2cc(-c3ncc(CNCc4nnc5n4CCC5)cn3)ccc2c1,4,-0.6
Cc1ccc(C(=O)N2CCc3nc[nH]c3[C@H]2c2ccccn2)cn1,-2,0.24
CCO[C@H]1COC[C@@H]1NC(=O)Nc1ccnn1-c1ccccc1,-18,3.03
Cn1ncc(Cl)c1C(=O)N[C@@]12CCC[C@@H]1C2,-7,0.59
CC(C)CN(Cc1ccsc1)C(=O)Cn1ccc(=O)cc1,-4,0.89
O=C(c1cccc(Cl)c1)[C@H]1CCCN(C(=O)CCCn2ccnc2)C1,5,-0.59
Cc1cccc(-n2cc(-c3ccccc3)nc2NC(=O)CN(Cc2ccco2)C(=O)c2ccccc2Cl)c1,-7,1.03
CCN(C(=O)c1nnc(C(C)C)s1)[C@H]1CCOC1,-14,2.15
COc1ccc(F)c(CN(C)Cc2nc(C)cs2)c1F,-15,2.1
CCN(CCOc1cccc(OC)c1)C(=O)c1cc(C(C)C)nn1C,13,-1.6
COc1cccc(CNC(=O)Cn2ccc3ccn(Cc4ccccc4C)c3c2=O)c1,10,-1.16

SMILES,% Inhibition [%],Z score
CNc1ncc(-c2nc(-c3ccco3)nn2[C@H]2CCS(=O)(=O)C2)cn1,-3,0.47
Cc1n[nH]c(C)c1CCC(=O)N1C[C@@H]2CC[C@H]1CN(Cc1cscn1)C2,-8,1.3
COc1ccc(CNC/C=C/c2ccccc2)cc1,-20,2.3
CCCNC(=O)CN(C)Cc1nc(CC)no1,-7,1.04
Cn1cc(CN2CCCC[C@H]2C(=O)N2CCOCC2)nn1,-4,0.52
Cc1noc(C)c1CN1C(=O)[C@@H]2CC[C@H]1CN(c1cc(N)ncn1)C2,3,-0.49
O=C1Cc2cc(S(=O)(=O)N3CCCc4ccccc43)ccc2N1,7,-0.92
COCCCNC(=O)CN(c1cc(Cl)c(Cl)cc1Cl)S(C)(=O)=O,1,-0.2
COc1ccc(C[C@@H](Cc2ccc3c(c2)OCO3)NC(=O)Nc2ccc3c(c2)OCCO3)cc1,-8,1.29
CC(C)CCn1c(=O)n(CCN2C[C@H]3CC[C@H]2C3)c2cc(C(=O)O)cnc21,-19,2.5
Cc1c(C(=O)N2CCOCC2)sc2ncnc(N[C@@H](C)c3cccs3)c12,-10,1.79
COc1ccccc1-c1noc2ncnc(N3CCCCCC3)c12,-1,0.16
COCCOCCn1ncc2c(cnn2-c2ccccc2)c1=O,1,-0.12
Cc1cccc(O)c1C(=O)N[C@H]1CCN(C2CCCCC2)C1,0,0.02
O=C(NCc1ccc(C(=O)N2CCOCC2)cc1)c1cc(Br)ccc1F,-7,0.93
Cc1ccc(Cl)cc1N(C)C(=O)c1c2c(nc3ccccc13)C(=O)N(C1CCCCC1)C2,-5,0.86
NS(=O)(=O)C[C@H]1CCCCN1S(=O)(=O)c1ccco1,-11,2.1
O=C(c1coc(COc2ccc3ncccc3c2)n1)N1CCC1,-13,2.57
O=C(Cn1cc(S(=O)(=O)Cc2cccc3ccccc23)c2ccccc21)N1CCCC1,20,-2.58
CNCC#CCOc1cc(C)cc(C)c1,-6,0.61
CCc1ccc2[nH]c3c(c(=O)c2c1)CN(CC(=O)NCc1ccccc1Cl)CC3,-9,1.03
C[C@@H](CCC(=O)N(C)Cc1nc2ccccc2n1C)N1CCOCC1,2,-0.38
Cc1nccn1-c1cc(CNC(=O)[C@H]2CCCN(C(=O)c3ccoc3)C2)ccn1,-5,0.54
OC[C@]1(O)CCCN(Cc2sc3ccccc3c2Cl)CC1,-16,2.72
CCC(C)NC(=O)CN1CCOCC1c1ncno1 (stereo not drawn),3,-0.48
CCc1cccc(C)c1-n1c(N)c(C(=O)NCc2ccco2)sc1=S,3,-0.46
CCOC(=O)c1[nH]c2c(c1OC(C)=O)CCC2,-3,0.39
